Source: PubChem BioAssay AID2101 (National Center for Advancing Translational Sciences (NCATS), 2009)
The whole screen tested about 330,000 compounds, of which about 300 (0.091%) were called active. Inconclusive means that the source gave no clear call. Such entries were picked first, then a sample of the others. Calls come from the whole dose curve; as a rule, active = well fitted inhibition curve with a large enough effect; inconclusive = small, poorly fitted or top-dose-only effect, or effect the other way, or another doubt; inactive = no such curve, though single readings can be large or run the other way. Potencies of inconclusive entries are left out as doubtful fits.

Biological target: Lysosomal acid glucosylceramidase (Homo sapiens) (UniProt P04062)
Assay: qHTS Assay for Inhibitors and Activators of N370S glucocerebrosidase as a Potential Chaperone Treatment of Gaucher Disease;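 for activity change, negative = inhibition: 0% = full enzyme activity and -100% = no enzyme basal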
Details: N370S GC spleen homogenate, 4MU-glucoside fluorescence; activity change, negative = inhibition: at 59.4 µM (top of the series) unless noted
Potency is the fitted concentration of half-maximal effect.

Question: How did the Potency turn out when `COc1ccc(NC(=O)Cc2ccc(Cl)c(Cl)c2)cn1` was run?
Answer: inactive

Question: How did the Potency turn out when `COC(=O)C1C(O)CC[C@H]2CN3CCc4c([nH]c5ccccc45)C3C[C@H]12` (some centres not stated) was run?
Answer: inconclusive [inhibitor, full curve, poor fit]

Question: `NS(=O)(=O)c1ccc(N=Nc2ccc(=O)[nH]c2O)cc1` was tested. Which Potency did it give?
Answer: inconclusive [inhibitor, partial curve]

Question: For `CN(C)/C=N/C1=C(C#N)C(c2cccs2)c2ccc3ccccc3c2O1` (configuration not stated), which Potency is on record?
Answer: inconclusive [activator, partial curve]

Question: How did the Potency turn out when `C/C(=N\NC(=O)c1cc(-c2ccc(C)s2)nc2ccccc12)c1cccnc1` was run?
Answer: inconclusive [activator, single point]

Question: Which Potency does the source give for `Cc1cc(=O)oc2c3c(cc(OCC(=O)NCC(=O)N[C@H](C(=O)O)C(C)C)c12)OC(C)(C)CC3` here?
Answer: inconclusive [activator, single point]

Question: With `CC1CCN(c2ccc(C(=O)Nc3ccc4c(c3)OCO4)cc2[N+](=O)[O-])CC1` as the molecule, how does the Potency read?
Answer: inconclusive [activator, partial curve]

Question: How did the Potency turn out when `CCOc1ccc(-c2[nH]ncc2-c2ccc(OC)c(OC)c2)c(O)c1` was run?
Answer: inconclusive [activator, partial curve, poor fit]

Question: `Cc1ccc2nc(-c3cccc(-c4cccc(Cl)c4)c3)c(NCc3ccccc3)n2c1` was tested. Which Potency did it give?
Answer: inconclusive [inhibitor, partial curve]

Question: With `Cc1cc(C)c2cc(C#N)c(N3CCCC3)nc2c1` as the molecule, how does the Potency read?
Answer: inactive

Question: With `COc1ccc(NC(=O)COC(=O)CCCC2=NS(=O)(=O)c3ccccc3N2)cc1Cl` as the molecule, how does the Potency read?
Answer: inconclusive [inhibitor, single point]

Question: `CN(C)CCCN(C(=O)c1ccc(S(=O)(=O)N2CCCC2)cc1)c1nc2c(F)cc(F)cc2s1` was tested. Which Potency did it give?
Answer: inconclusive [inhibitor, full curve, poor fit]

Question: `CCNC(=O)COC(=O)c1csc2c1CCCC2` was tested. Which Potency did it give?
Answer: inconclusive [inhibitor, single point]

Question: `CN(Cc1cnccn1)C(=O)CC1C(=O)NCCN1Cc1cccc(Oc2ccccc2)c1` (configuration not stated) was tested. Which Potency did it give?
Answer: inconclusive [inhibitor, single point]

Question: For `COc1ccc2c(=O)c(-c3ccc(OC)c(OC)c3)coc2c1`, which Potency is on record?
Answer: inactive

Question: `COc1ccc(NC2CCCN(C(=O)c3ccc(C)c(N4CCNC4=O)c3)C2)cc1` (configuration not stated) was tested. Which Potency did it give?
Answer: inconclusive [inhibitor, partial curve]

Question: With `Cc1cc(Br)cc2c(C(=O)Nc3c(C)n(C)n(-c4ccccc4)c3=O)cc(-c3cccs3)nc12` as the molecule, how does the Potency read?
Answer: inconclusive [activator, partial curve]

Question: With `COc1ccc(C2=Nc3ccccc3OC2)cc1` as the molecule, how does the Potency read?
Answer: inactive

Question: With `CC1OC(OCC2OC(Oc3c(-c4ccc(O)cc4)oc4cc(O)cc(O)c4c3=O)C(O)C(O)C2O)C(O)C(O)C1O` (configuration not stated) as the molecule, how does the Potency read?
Answer: inactive

Question: How did the Potency turn out when `C[C@@H]1C(c2cccc(Cl)c2)=NN(c2ccc(Br)cc2)[C@H]1C(=O)N1CCOC1=O` was run?
Answer: inconclusive [activator, single point]

Question: With `CCOC(=O)CNc1c(-c2ccc(Cl)cc2)nc2cnccn12` as the molecule, how does the Potency read?
Answer: inactive

Question: For `Cc1cc(NC(=O)c2cccs2)ncc1NC(=O)c1cccc(F)c1`, which Potency is on record?
Answer: inactive

Question: With `CCN(CC)CCNC(=S)NC(=O)c1cn(-c2ccccc2)nc1-c1ccc(OC)cc1` as the molecule, how does the Potency read?
Answer: inconclusive [inhibitor, single point]

Question: Which Potency does the source give for `Nc1ccccc1Nc1nc2ccccc2[nH]1` here?
Answer: inactive

Question: Which Potency does the source give for `Cc1ccc(OCC(=O)NNC(=O)Cc2ccc(S(=O)(=O)N3CCOCC3)s2)cc1` here?
Answer: inconclusive [inhibitor, single point]

Question: How did the Potency turn out when `COc1ccc(-c2nc(C)c(C(C)=O)n2O)cc1[N+](=O)[O-]` was run?
Answer: inconclusive [inhibitor, partial curve]

Question: With `Cc1cccc(NC(=O)c2cc(N3CCOCC3)nc3ccccc23)c1` as the molecule, how does the Potency read?
Answer: inconclusive [inhibitor, single point]

Question: Which Potency does the source give for `CN(C)c1ccc(O)c2c1CC1CC3[C@@H](N(C)C)C(=O)C(C(N)=O)=C(O)[C@]3(O)C(=O)C1=C2O` (some centres not stated) here?
Answer: inconclusive [inhibitor, partial curve, poor fit]

Question: How did the Potency turn out when `COc1ccc(C(=O)Cc2nnc(C)s2)cc1` was run?
Answer: inactive

Question: Which activity change, negative = inhibition does the source give for `Cc1ccc(-c2nn(CC(=O)Nc3ccc4c(c3)nc3n4CCOC3)c(=O)c3ccccc23)cc1` here?
Answer: inconclusive: 38.7% [activator]

Question: `CCC1S/C(=N/N=C/c2ccco2)N(Cc2ccccc2)C1=O` (configuration not stated) was tested. Which Potency did it give?
Answer: inconclusive [activator, single point]

Question: For `CC(C)(C)Nc1c2ccccc2nc2ccccc12`, which Potency is on record?
Answer: inconclusive [activator, partial curve]

Question: Which activity change, negative = inhibition does the source give for `Cn1c(SCC(=O)c2ccccc2)nnc1-c1cnccn1` here?
Answer: inconclusive: 29.6% [activator]

Question: How did the Potency turn out when `Cc1ccc(-c2noc(CN(C(=O)c3ccc4c(c3)OCO4)C(C)C)n2)cc1` was run?
Answer: inconclusive [activator, partial curve]

Question: `O=C(Nc1cc(S(=O)(=O)N2CCCCC2)ccc1Oc1ccccc1)C1=COCCO1` was tested. Which Potency did it give?
Answer: inconclusive [activator, single point]

Question: With `C(/C=C/c1ccccc1)=N/N1CCN(c2ccccc2)CC1` as the molecule, how does the Potency read?
Answer: inactive

Question: How did the Potency turn out when `CCn1cc(C(=O)OCC(=O)OC2CC(C)CCC2C(C)C)c(=O)c2ccc(C)nc21` (configuration not stated) was run?
Answer: inconclusive [activator, partial curve]

Question: `O=C(NCc1ccc2c(c1)OCO2)c1cc2c(s1)CSC2` was tested. Which Potency did it give?
Answer: inactive

Question: For `CCOc1ccc2ncc(S(=O)(=O)c3ccccc3)c(N3CCN(c4ccc(OC)cc4)CC3)c2c1`, which Potency is on record?
Answer: inconclusive [activator, full curve]

Question: `CN(C)S(=O)(=O)c1cccc(-c2nnc(SCCNCCO)n2-c2ccc(F)cc2)c1` was tested. Which Potency did it give?
Answer: inconclusive [inhibitor, partial curve]

Question: `CCOC(=O)C1(CC2CCCCO2)CCN(C(=O)Nc2ccccc2CC)CC1` (configuration not stated) was tested. Which Potency did it give?
Answer: inactive

Question: With `O=C(CN1C(=O)S/C(=C\c2ccc(Cl)cc2)C1=O)NCCCn1ccnc1` as the molecule, how does the Potency read?
Answer: inconclusive [inhibitor, single point]
